Test results taken from the supplement of paper PMC12340641.
In all, about 1,000 compounds were measured (“relative growth in counter assay (no AraC = 100%, AraC + DMSO = 0%)”: median about -1.1, highest 2% from about 20 on). Some of the results follow.

System: HEK293FT dCK*-only
Assay: relative growth in counter assay (no AraC = 100%, AraC + DMSO = 0%); higher = more growth rescue independent of IKZF1
Conditions: compound concentration: 5 uM; AraC concentration: 0.3 uM; overnight pretreatment + 4 days AraC
Experimental: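 Growth recovery screen of the molecular-glue-like (Specs) library. HEK293FT cells expressing a dCK*-IKZF1 fusion (primary) or dCK* alone (counter) were pretreated overnight with compound at 5 uM, then given 0.3 uM AraC for 4 days. Hoechst nuclei were counted by imaging. Primary: normalised to pomalidomide (100%) and DMSO (0%), mean of 2 replicates. Counter: normalised to no-AraC (100%) and AraC+DMSO (0%), single replicate.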

First: CC(=O)Nc1ccc(Oc2ccc3c(c2)C(=O)N(c2cccc(C)c2)C3=O)cc1
Second: CC(=O)Nc1ccc(Oc2ccc3c(c2)C(=O)N(c2cccc(OC(C)=O)c2)C3=O)cc1
The “relative growth in counter assay” value of the first is lower: -8.86% for the first, 13.4% for the second.

First: O=C1CCC(N2C(=O)c3cccc(NCc4ccc(C(=O)O)cc4)c3C2=O)C(=O)N1 (stereo not drawn)
Second: O=C1CCC(N2C(=O)c3cccc(O)c3C2=O)C(=O)N1 (stereo not drawn)
The “relative growth in counter assay” value of the first is higher: 2.66% for the first, 2.54% for the second.

Going from `CNC(=O)C1(c2cccc(Nc3ncc(C)s3)n2)CCN(C(=O)C2CCCCC2)CC1` to `Cc1cnc(Nc2cccc(C3CCN(C(=O)CC4(O)CCCCC4)CC3)n2)s1`, the “relative growth in counter assay” value falls from -21.2% to -22.4%.

First: COc1cc(NS(=O)(=O)c2ccc(Nc3nc(-c4ccc(Cl)cc4)cs3)cc2)nc(OC)n1
Second: COc1cc(NS(=O)(=O)c2ccc(Nc3nc(-c4sc(C)nc4C)cs3)cc2)nc(OC)n1
The “relative growth in counter assay” value of the first is lower: -1.17% for the first, 4.44% for the second.

Compared with `Cc1cnc(Nc2cccc(C3CN(C(=O)Cn4cnc5ccccc54)CCO3)n2)s1` (stereo not drawn), `Cc1cnc(Nc2cccc(C3CN(C(=O)Cn4c(CC(C)C)nc5ccccc54)CCO3)n2)s1` (stereo not drawn) is lower in “relative growth in counter assay” value: -16.3% for the first, -19.8% for the second.

Going from `CC(Oc1ccccc1)C(=O)Nc1ccc(S(=O)(=O)Nc2ncccn2)cc1` (stereo not drawn) to `O=C(CSCc1ccccc1)Nc1ccc(S(=O)(=O)Nc2ncccn2)cc1`, the “relative growth in counter assay” value rises from 0.06% to 3.78%.

First: Cc1cc(C)nc(NS(=O)(=O)c2ccc(NC(=O)COc3ccccc3Cl)cc2)n1
Second: Cc1cc(NS(=O)(=O)c2ccc(NC(=O)COc3ccccc3Cl)cc2)nc(C)n1
The “relative growth in counter assay” value of the first is higher: -1.6% for the first, -6.2% for the second.

Going from `Cc1csc(Nc2cccc(C3CCCN3C(=O)c3ccc4[nH]c(C(C)C)nc4c3)n2)n1` (stereo not drawn) to `COCC(=O)N1CCCC1c1cccc(Nc2nc(C)cs2)n1` (stereo not drawn), the “relative growth in counter assay” value falls from 30.5% to -10.8%.

Going from `CC(=O)c1ccc(N2C(=O)c3ccc(Oc4ccccc4)cc3C2=O)cc1` to `CCC(=O)Nc1ccc(Oc2ccc3c(c2)C(=O)N(c2ccc(O)cc2)C3=O)cc1`, the “relative growth in counter assay” value rises from -22.4% to -5.77%.

Going from `COc1ccc2[nH]c3nc(SCC(=O)Nc4cc(Cl)ccc4OC)nnc3c2c1` to `COc1ccc2[nH]c3nc(SCC(=O)Nc4cccc(F)c4)nnc3c2c1`, the “relative growth in counter assay” value rises from -15.7% to -13.9%.

Going from `Cc1ccc2[nH]c3nc(SCC(=O)Nc4ccc(F)cc4)nnc3c2c1` to `Cc1ccc(NC(=O)CSc2nnc3c(n2)[nH]c2ccc(F)cc23)cc1Cl`, the “relative growth in counter assay” value falls from 4.95% to -1.21%.

First: COc1cc(NS(=O)(=O)c2ccc(NC(=S)NC(=O)/C=C/c3ccccc3)cc2)nc(OC)n1
Second: COc1cc(NS(=O)(=O)c2ccc(NC(=O)c3ccccc3)cc2)nc(OC)n1
The “relative growth in counter assay” value of the first is lower: -4.27% for the first, 2.14% for the second.

Going from `COc1cccc(C(=O)Nc2ccc(S(=O)(=O)Nc3cc(C)nc(C)n3)cc2)c1` to `Cc1cccc(C(=O)Nc2ccc(S(=O)(=O)Nc3cc(C)nc(C)n3)cc2)c1`, the “relative growth in counter assay” value rises from 0.7% to 3.02%.

Going from `O=C(Cc1cccs1)Nc1ccc(Oc2ccc3c(c2)C(=O)N(c2ccc(O)cc2)C3=O)cc1` to `O=C(CN1C(=O)c2ccccc2C1=O)Nc1ccc(S(=O)(=O)Nc2ncccn2)cc1`, the “relative growth in counter assay” value falls from -1.16% to -1.34%.

Going from `CC(C)C(=O)Nc1ccc(C(=O)Nc2ccc(S(=O)(=O)Nc3ncccn3)cc2)cc1` to `CC(C)c1ccc(OCC(=O)Nc2ccc(S(=O)(=O)Nc3ncccn3)cc2)cc1`, the “relative growth in counter assay” value rises from -9.03% to -2.94%.

Compared with `CCOc1ccc(/C=C/C(=O)Nc2ccc(S(=O)(=O)Nc3cc(C)nc(C)n3)cc2)cc1OC`, `Cc1ccc(OCC(=O)Nc2ccc(S(=O)(=O)Nc3cc(C)nc(C)n3)cc2)c(C)c1` is higher in “relative growth in counter assay” value: -8.34% for the first, -2.7% for the second.

First: Cc1cnc(Nc2cccc(C3CN(C(=O)C4C5CCCCC54)CCO3)n2)s1 (stereo not drawn)
Second: CO[C@H]1CC[C@H](C(=O)N2CCOC(c3cccc(Nc4ncc(C)s4)n3)C2)CC1 (stereo partly drawn)
The “relative growth in counter assay” value of the first is lower: -3.98% for the first, -1.98% for the second.

Compared with `Cc1ccc(C)c(OCC(=O)Nc2ccc(S(=O)(=O)Nc3ncccn3)cc2)c1C`, `Cc1cc(Cl)ccc1OCCCC(=O)Nc1ccc(S(=O)(=O)Nc2ncccn2)cc1` is higher in “relative growth in counter assay” value: -12.5% for the first, -5.75% for the second.

Compared with `COc1ccc(CC(=O)Nc2ccc(S(=O)(=O)Nc3cc(OC)nc(OC)n3)cc2)cc1`, `COc1cc(NS(=O)(=O)c2ccc(NCc3ccccc3O)cc2)nc(OC)n1` is lower in “relative growth in counter assay” value: 4.05% for the first, -0.72% for the second.

First: COCC(=O)Nc1ccc(S(=O)(=O)Nc2ccccn2)cc1
Second: CC(C)c1ccccc1OCC(=O)Nc1ccc(S(=O)(=O)Nc2ccccn2)cc1
The “relative growth in counter assay” value of the first is higher: -0.55% for the first, -2.81% for the second.

Compared with `Cc1cc(C)cc(OCC(=O)Nc2ccc(S(=O)(=O)Nc3cc(C)nc(C)n3)cc2)c1`, `Cc1cc(NS(=O)(=O)c2ccc(NC(=O)c3ccccc3C)cc2)nc(C)n1` is lower in “relative growth in counter assay” value: 7.68% for the first, 3.02% for the second.

First: Cc1cnc(Nc2cccc(C3CCN(C(=O)C4CCCCC4C(=O)N4CCCC4)CC3)n2)s1 (stereo not drawn)
Second: Cc1cnc(Nc2cccc(C3CCN(C(=O)C4CCCC(C)C4)CC3)n2)s1 (stereo not drawn)
The “relative growth in counter assay” value of the first is lower: -22.8% for the first, -17.5% for the second.

Compared with `Cc1ccnc(NS(=O)(=O)c2ccc(NC(=O)Cc3c(F)cccc3Cl)cc2)n1`, `Cc1ccnc(NS(=O)(=O)c2ccc(NC(=O)CCCc3ccccc3)cc2)n1` is lower in “relative growth in counter assay” value: 10% for the first, 0.72% for the second.

Going from `CNc1cc(C(=O)N2CCOC(c3cccc(Nc4nc(C)c(C)s4)n3)C2)ccn1` (stereo not drawn) to `CCOC(=O)c1nc[nH]c1C(=O)N1CCOC(c2cccc(Nc3ncc(C)s3)n2)C1` (stereo not drawn), the “relative growth in counter assay” value falls from 10.5% to -2.22%.

First: O=C(CCC1CCCCC1)Nc1ccc(S(=O)(=O)Nc2ncccn2)cc1
Second: CC(C)(C)C(=O)Nc1ccc(S(=O)(=O)Nc2ncccn2)cc1
The “relative growth in counter assay” value of the first is lower: -4.09% for the first, -0.18% for the second.

Compared with `O=C(Nc1ccc(S(=O)(=O)Nc2ncccn2)cc1)c1ccc2c(c1)OCO2`, `Cc1ccnc(NS(=O)(=O)c2ccc(NC(=O)c3ccc4c(c3)OCO4)cc2)n1` is higher in “relative growth in counter assay” value: -0.73% for the first, 3.33% for the second.

Going from `COc1cc(NS(=O)(=O)c2ccc(NC(=O)/C=C/c3ccco3)cc2)nc(OC)n1` to `COc1ccc(OCCCC(=O)Nc2ccc(S(=O)(=O)Nc3nc(C)cc(C)n3)cc2)cc1`, the “relative growth in counter assay” value falls from 1.2% to -2.05%.

Going from `Cc1cnc(Nc2cccc(C(C(=O)N(C)C)C3CCN(C(=O)c4cccc(Cl)c4F)CC3)n2)s1` (stereo not drawn) to `Cc1cnc(Nc2cccc(CC3CCN(C(=O)c4ccccc4F)CC3)n2)s1`, the “relative growth in counter assay” value falls from 6.99% to -15.7%.

Compared with `CCc1nccn1CC(=O)N1CCOC(c2cccc(Nc3ncc(C)s3)n2)C1` (stereo not drawn), `O=C(CCc1cccc(Cl)c1)N1CCOC(c2cccc(Nc3nccs3)n2)C1` (stereo not drawn) is higher in “relative growth in counter assay” value: -1.5% for the first, 19.5% for the second.

Compared with `Cc1cnc(Nc2cccc(C3CCN(C(=O)C4CC(=O)N(C)C4)CC3)n2)s1` (stereo not drawn), `CCCCc1cnc(Nc2cccc(C3CCN(C(=O)C4CCCCC4)CC3)n2)s1` is lower in “relative growth in counter assay” value: -12% for the first, -18.2% for the second.

Compared with `Cc1cc(C)nc(NS(=O)(=O)c2ccc(NC(=O)CCCOc3ccc(Cl)cc3)cc2)n1`, `Cc1cc(C)nc(NS(=O)(=O)c2ccc(NC(=O)COc3ccc4ccccc4c3)cc2)n1` is higher in “relative growth in counter assay” value: -2.13% for the first, -1.85% for the second.

Going from `Cc1cc(C)nc(NS(=O)(=O)c2ccc(NC(=O)c3ccccc3C(=O)O)cc2)n1` to `Cc1cc(C)nc(NS(=O)(=O)c2ccc(NC(=O)CCN3C(=O)c4ccccc4C3=O)cc2)n1`, the “relative growth in counter assay” value falls from 0% to -7.05%.

Compared with `Cc1ccnc(NS(=O)(=O)c2ccc(NC(=O)C3CCCCC3)cc2)n1`, `CCOCCC(=O)Nc1ccc(S(=O)(=O)Nc2nccc(C)n2)cc1` is higher in “relative growth in counter assay” value: -6.81% for the first, -2.85% for the second.

Compared with `O=C1CCC(N2C(=O)c3cccc(Br)c3C2=O)C(=O)N1` (stereo not drawn), `O=C(O)CCOCCOCCOCCOCCNc1ccc2c(c1)C(=O)N(C1CCC(=O)NC1=O)C2=O` (stereo not drawn) is lower in “relative growth in counter assay” value: 11.1% for the first, 9.95% for the second.

Compared with `O=C(CCCOc1ccccc1)Nc1ccc(S(=O)(=O)Nc2ccccn2)cc1`, `Cc1ccnc(NS(=O)(=O)c2ccc(NC(=O)c3ccc(-c4ccccc4)cc3)cc2)n1` is lower in “relative growth in counter assay” value: 1.5% for the first, 0.76% for the second.

Compared with `O=C(NCc1cnc(Nc2cccc(C3CCN(C(=O)C4CCCCC4)CC3)n2)s1)c1cccc(F)c1`, `O=C(C1CCCCC1)N1CCOC(c2cccc(Nc3ncc(Cc4cccc(Cl)c4)s3)n2)C1` (stereo not drawn) is higher in “relative growth in counter assay” value: -9.34% for the first, 13.1% for the second.

Compared with `COc1ccc(NS(=O)(=O)c2ccc(NS(=O)(=O)c3ccccc3[N+](=O)[O-])cc2)nn1`, `Cc1ccc(S(=O)(=O)Nc2ccc(S(=O)(=O)Nc3nccc(C)n3)cc2)cc1` is lower in “relative growth in counter assay” value: -1.87% for the first, -5.66% for the second.

First: Cc1cc(C)nc(SCC(=O)Nc2ccc(S(=O)(=O)Nc3ncccn3)cc2)n1
Second: Cc1cc(C)nc(NS(=O)(=O)c2ccc(NC(=O)CSc3nc(C)cc(C)n3)cc2)n1
The “relative growth in counter assay” value of the first is higher: 19.9% for the first, -6.83% for the second.

Compared with `Cc1ccc(C(C)(C)C(=O)N2CCCC2c2cccc(Nc3ncc(C)s3)n2)cc1` (stereo not drawn), `Cc1cnc(Nc2cccc(C3CCN(CC(=O)Nc4ccc(F)cc4)CC3)n2)s1` is higher in “relative growth in counter assay” value: -21% for the first, -18% for the second.

Going from `CCCc1cnc(Nc2cccc(C3CCN(C(=O)CN(C)C)CC3)n2)s1` to `CCCCc1cnc(Nc2cccc(C3CCN(C(=O)C4(C)CCCN4C(=O)OC(C)(C)C)CC3)n2)s1` (stereo not drawn), the “relative growth in counter assay” value rises from -21.5% to 5.27%.

First: Cc1cnc(Nc2cccc(C3CCN(C(=O)C4(NC(=O)CC(C)(C)C)CCCCC4)CC3)n2)s1
Second: CNCC(=O)N1CCC(c2cccc(Nc3ncc(-c4cccnc4)s3)n2)CC1
The “relative growth in counter assay” value of the first is higher: -20.4% for the first, -23.5% for the second.

Going from `CC(C)C(C(=O)Nc1ccc(S(=O)(=O)Nc2ncccn2)cc1)N1C(=O)c2ccccc2C1=O` (stereo not drawn) to `O=S(=O)(Nc1ncccn1)c1ccc(-n2cccc2)cc1`, the “relative growth in counter assay” value falls from 2.48% to -10.3%.

Compared with `Cc1cc(C)nc(NS(=O)(=O)c2ccc(NC(=O)CSc3nnnn3-c3ccccc3)cc2)n1`, `Cc1cc(C)nc(NS(=O)(=O)c2ccc(NS(=O)(=O)/C=C/c3ccccc3)cc2)n1` is higher in “relative growth in counter assay” value: 1.47% for the first, 5.62% for the second.

Compared with `COc1ccccc1CCC(=O)N1CCCC1c1cccc(Nc2nc(C)cs2)n1` (stereo not drawn), `Cc1csc(Nc2cccc(C3CCCN3C(=O)CC3CC(C)(C)NC(C)(C)C3)n2)n1` (stereo not drawn) is higher in “relative growth in counter assay” value: 2.36% for the first, 4.79% for the second.

Going from `CCOC(=O)CN(C(=O)CSc1nnc2c(n1)[nH]c1ccc(OC)cc12)c1ccc(F)cc1` to `Nc1ccc(S(=O)(=O)Nc2nccc(/C=C/c3ccc(Br)s3)n2)cc1`, the “relative growth in counter assay” value falls from 1.26% to -0.05%.

First: O=C(C1CCCCC1)N1CCOC(c2cccc(Nc3ncc(Cc4ccc(Cl)cc4)s3)n2)C1 (stereo not drawn)
Second: Cc1cnc(Nc2cccc(CC3CCN(C(=O)c4ccccc4)CC3)n2)s1
The “relative growth in counter assay” value of the first is higher: 2.81% for the first, -4.86% for the second.

With `Cc1ccnc(NS(=O)(=O)c2ccc(NS(C)(=O)=O)cc2)n1` the “relative growth in counter assay” value was -0.67%.
